Laboratory results reported in PubChem BioAssay AID1347165 (National Center for Advancing Translational Sciences (NCATS), 2019).
Values joined by “and” are separate entries in the source; they are usually repeats but may differ in a detail not shown here. Equal entries are not always repeated. Out of some 220,000 compounds screened, about 5,700 (2.6%) were called active. The shares of active, inactive and inconclusive entries below differ from those in the screen. Calls follow the shape of the dose curve; as a rule, active = well fitted inhibition curve with a large enough effect; inconclusive = small, poorly fitted or top-dose-only effect; inactive = no such curve, though single readings can be large or run the other way. Potencies beside an inconclusive call are fits to weak or partial responses and may not hold up.
Also: nearly all actives have a fitted effect of over 70% in size.
For activity change, negative = inhibition in this document: 0% is about no effect.
Potency is read from the fitted curve at half-maximal effect; tags tell the direction and shape of the fitted curve.

What follows are compounds tested against Lysine-specific demethylase 5B (Homo sapiens) (UniProt Q9UGL1) (assay: Primary screen for KDM5B Histone Demethylases FDH-coupled qHTS). Details: FDH-coupled NADH fluorescence (FDH is formaldehyde dehydrogenase); activity change, negative = inhibition: at 57.7 µM (top of the series).
UniProt Q9UGL1, sequence (Q9UGL1 whole entry, looked up): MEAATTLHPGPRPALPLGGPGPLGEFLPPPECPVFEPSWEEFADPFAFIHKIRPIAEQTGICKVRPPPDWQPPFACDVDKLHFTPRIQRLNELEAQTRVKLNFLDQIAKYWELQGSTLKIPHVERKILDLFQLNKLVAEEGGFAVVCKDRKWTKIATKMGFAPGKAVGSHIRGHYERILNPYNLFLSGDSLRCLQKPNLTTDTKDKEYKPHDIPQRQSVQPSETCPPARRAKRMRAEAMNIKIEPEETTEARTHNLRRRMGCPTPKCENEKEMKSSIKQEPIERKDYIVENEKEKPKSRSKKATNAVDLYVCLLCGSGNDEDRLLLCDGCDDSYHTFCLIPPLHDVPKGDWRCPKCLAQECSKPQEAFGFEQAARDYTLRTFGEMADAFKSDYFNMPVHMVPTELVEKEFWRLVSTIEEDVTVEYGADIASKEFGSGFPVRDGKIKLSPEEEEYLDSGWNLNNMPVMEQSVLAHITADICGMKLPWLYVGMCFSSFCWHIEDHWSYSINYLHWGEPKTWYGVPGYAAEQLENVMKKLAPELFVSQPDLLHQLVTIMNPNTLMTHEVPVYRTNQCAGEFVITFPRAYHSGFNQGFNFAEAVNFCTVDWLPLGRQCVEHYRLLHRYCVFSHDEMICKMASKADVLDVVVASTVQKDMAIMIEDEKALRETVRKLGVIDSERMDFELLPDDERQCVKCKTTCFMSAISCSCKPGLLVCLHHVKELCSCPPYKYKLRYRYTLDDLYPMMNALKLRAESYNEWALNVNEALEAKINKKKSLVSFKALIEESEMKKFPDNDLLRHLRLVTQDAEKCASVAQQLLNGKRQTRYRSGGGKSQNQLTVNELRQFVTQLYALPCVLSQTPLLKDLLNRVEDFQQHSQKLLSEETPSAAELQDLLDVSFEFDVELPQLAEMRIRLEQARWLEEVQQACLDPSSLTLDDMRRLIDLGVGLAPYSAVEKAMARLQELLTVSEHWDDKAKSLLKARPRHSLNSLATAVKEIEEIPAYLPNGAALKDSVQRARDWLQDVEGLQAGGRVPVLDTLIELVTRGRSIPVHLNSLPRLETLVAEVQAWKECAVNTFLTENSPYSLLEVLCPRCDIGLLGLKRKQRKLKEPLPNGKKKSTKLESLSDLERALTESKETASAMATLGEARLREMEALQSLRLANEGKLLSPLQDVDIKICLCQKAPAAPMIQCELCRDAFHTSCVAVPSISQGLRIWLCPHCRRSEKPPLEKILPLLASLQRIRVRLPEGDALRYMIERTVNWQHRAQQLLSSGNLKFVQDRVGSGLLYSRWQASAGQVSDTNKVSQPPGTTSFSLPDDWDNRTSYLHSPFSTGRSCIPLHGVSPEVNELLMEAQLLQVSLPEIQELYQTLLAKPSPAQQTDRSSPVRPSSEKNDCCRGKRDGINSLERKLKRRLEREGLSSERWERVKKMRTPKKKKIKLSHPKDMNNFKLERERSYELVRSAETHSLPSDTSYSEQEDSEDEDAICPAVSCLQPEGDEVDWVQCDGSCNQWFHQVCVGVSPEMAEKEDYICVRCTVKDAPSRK
Method in brief: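 Measured: NADH fluorescence change, 30 min, RT. System: KDM5BΔAP 200 nM final, H3K4me3 peptide, α-KG, Fe(II), ascorbate, NAD⁺ plus FDH, pH 7.5 HEPES. Compounds: titrated, 10 min pre-incubation with enzyme.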
For `N#Cc1cccc(-c2ccc3n(c2=O)C[C@H]2C[C@@H]3CN(C(=O)CSCC(=O)O)C2)c1`, the Potency was active: 35.5 µM.
In the case of `COc1ccc(/C=C/c2nc3ccccc3c(=O)n2-c2ccc(C)cc2)cc1O`, the Potency was inconclusive: 14.1 µM [inhibitor, partial curve, poor fit].
In the case of `COc1ccc(-c2ccc3n(c2=O)C[C@H]2C[C@@H]3CN(S(C)(=O)=O)C2)cc1`, the Potency was active: 39.8 µM.
For `Cc1ccccc1-n1c(/C=C/c2ccco2)nc2ccccc2c1=O`, the Potency was inconclusive: 39.8 µM [inhibitor, single point].
`CNCC(=O)N1CC(COC)C2(CCNCC2)C1` (configuration not stated) was tested, and the Potency was inconclusive: 2.82 µM [inhibitor, partial curve, poor fit].
In the case of `COc1cc2c(cc1OC1CCCC1)NC(=O)C21CCN(c2ncc(F)cn2)CC1`, the Potency was inconclusive: 44.7 µM [inhibitor, single point].
`COc1ccc(S(=O)(=O)N2[C@H]3CC[C@@H]2c2cnc(C)nc2C3)cc1` was tested, and the Potency was inconclusive: 25.1 µM [inhibitor, partial curve, poor fit].
In the case of `Cc1cc(NC(=O)c2cccn(Cc3cccc(Cl)c3)c2=O)no1`, the Potency was inconclusive: 31.6 µM [inhibitor, single point].
`Cc1cc2c(N3CCC(N4C[C@@H]5CCN[C@@H]5C4)CC3)ncnc2s1` was tested, and the Potency was inconclusive: 20 µM [inhibitor, partial curve, poor fit].
`CCC1(N2CCN(C(=O)Cc3c[nH]c4ccccc34)CC2)CCN(S(C)(=O)=O)C1` (configuration not stated) was tested, and the Potency was inconclusive: 39.8 µM [inhibitor, partial curve, poor fit].
In the case of `O=C(C1CCOCC1)N1CCC2(CC1)NCc1ccccc1-n1ccnc12`, the Potency was “inactive”.
`COCCN1C[C@H]2CN(Cc3ccccn3)CCN2C1=O` was tested, and the Potency was inconclusive: 35.5 µM [inhibitor, partial curve, poor fit].
In the case of `Cn1nc(-c2ccc(F)cc2)cc1[C@H]1CN2CC[C@H]1C[C@@H]2CNC(=O)Nc1cccc(C#N)c1`, the Potency was “inactive”.
With `c1ccc(CCNC2CCCCCCC2)cc1` the Potency was “inactive”.
`CCCCc1ccc(NC(=O)c2cccn(Cc3ccc(Cl)cc3)c2=O)cc1` was tested, and the Potency was inconclusive: 1 µM [inhibitor, partial curve, poor fit].
For `CC(=O)N1C[C@@H]2C[C@H](C1)c1ccc(NC(=O)C3CCCCC3)c(=O)n1C2`, the Potency was inconclusive: 39.8 µM [inhibitor, single point].
In the case of `Cc1[nH]nc2c1C(c1ccc(-c3ccccc3)o1)SCC(=O)N2` (configuration not stated), the Potency was inconclusive: 39.8 µM [inhibitor, single point].
For `Cc1ccccc1C(=O)N1CCC2(CC1)NCc1ccccc1-n1ccnc12`, the Potency was “inactive”.
With `CC(C(N)=O)N1CCC2(CC1)C(=O)N(C)c1ccccc12` (configuration not stated) the Potency was “inactive”.
For `COc1ccc(-c2cc([C@H]3CN4CC[C@H]3C[C@@H]4CNC(=O)Nc3ccccc3)n(C)n2)cc1OC`, the Potency was “inactive”.
In the case of `Cc1noc(-c2ccc(N3CC4CC(C3)c3cccc(=O)n3C4)nc2)n1` (configuration not stated), the Potency was active: 22.4 µM.
`NC(Cc1ccc(Cl)cc1)c1ccccc1` (configuration not stated) was tested, and the Potency was “inactive”.
In the case of `Cc1cc(-n2c(/C=C/c3cccs3)nc3ccccc3c2=O)ccc1Br`, the Potency was inconclusive: 4.47 µM [inhibitor, full curve, poor fit].
In the case of `c1ccc(CN2C[C@H](c3ccc4c(c3)OCO4)[C@@H]3[C@H]2C2CCN3CC2)nc1`, the Potency was inconclusive: 15.8 µM [inhibitor, partial curve, poor fit].
With `OCC1CN2CCCCC2CN1` (configuration not stated) the Potency was inconclusive: 178 µM [inhibitor, partial curve, poor fit].
In the case of `CCN1Cc2ccccc2NC(=O)C12CCNC2` (configuration not stated), the Potency was active: 56.2 µM.
With `CC[C@H]1CN2CC[C@H]1C[C@@H]2CNCc1cccs1` the Potency was “inactive”.
In the case of `O=C1NC[C@H]2CN(C3CCC3)CCN12`, the Potency was “inactive”.
In the case of `Cc1ccccc1-c1ccc2n(c1=O)C[C@H]1C[C@@H]2CN(C(=O)CSCC(=O)O)C1`, the Potency was active: 39.8 µM.
`O=C(O)CCC(=O)N1C[C@@H]2C[C@H](C1)c1c(-c3cc4ccccc4s3)ccc(=O)n1C2` was tested, and the Potency was “inactive”.
With `Cn1cc(C(=O)OCC(=O)NC2CC2)c2ccccc21` the Potency was “inactive”.
For `Cc1nc(-c2ccccc2Br)cc([C@H]2CN3CC[C@H]2C[C@@H]3CNC(=O)c2ccc(N(C)C)cc2)n1`, the Potency was “inactive”.
`COc1ccc(-c2cc([C@H]3CN4CC[C@H]3C[C@@H]4CNC(=O)C3CCC3)nc(C)n2)cc1OC` was tested, and the Potency was active: 31.6 µM.
With `O=C(Cc1ccc(Cl)cc1)N1CCN(C2CCN(Cc3ccccn3)C2=O)CC1` (configuration not stated) the Potency was “inactive”.
For `COc1ccc(Cl)cc1NC(=O)CN1C(=O)CN=C(c2ccccc2)c2cc(Cl)ccc21`, the activity change, negative = inhibition was inconclusive: -33.2% [inhibitor].
`O=S(=O)(NC[C@H]1C[C@@H]2CCN1C[C@@H]2CN1CCN(c2ncccn2)CC1)c1ccc(Cl)cc1` was tested, and the Potency was “inactive”.
`COc1cc(OC)c(OC)cc1CN1CCN(C(=O)COc2ccc3ccccc3c2)CC1` was tested, and the Potency was inconclusive: 12.6 µM [inhibitor, partial curve, poor fit].
In the case of `O=c1c2ccccc2nc(/C=C/c2cccc3ccccc23)n1-c1ccccc1Cl`, the Potency was inconclusive: 28.2 µM [inhibitor, single point].
`CCOP(=O)(Cc1ccc(C#N)o1)OCC` was tested, and the Potency was “inactive”.
In the case of `CC(C)N(C(=O)CN1CC=C(c2c[nH]c3ccccc23)CC1)C(C)C`, the Potency was “inactive”.
In the case of `N#Cc1ccc(C(=O)N2C[C@@H]3C[C@H](C2)c2c(-c4ccc(Cl)cc4)ccc(=O)n2C3)cc1`, the Potency was “inactive”.
For `Cc1nnc2n1CCC(NC(=O)c1nn(C)c3ccccc13)CC2` (configuration not stated), the Potency was inconclusive: 28.2 µM [inhibitor, partial curve, poor fit].
For `Cc1cccc(-n2c(/C=C/c3ccccc3O)nc3ccccc3c2=O)c1`, the Potency was inconclusive: 39.8 µM [inhibitor, single point].
In the case of `CN(C)CC(=O)Nc1ccc2n(c1=O)C[C@H]1C[C@@H]2CN(C(=O)c2cccnc2)C1`, the Potency was inconclusive: 39.8 µM [inhibitor, partial curve, poor fit].
`Cc1nc(-c2ccc(N(C)C)cc2)cc([C@H]2CN3CC[C@H]2C[C@@H]3CNC(=O)NC(C)C)n1` was tested, and the Potency was active: 11.2 µM.
In the case of `Cc1ccc(-n2cccc2CC(=O)N2CCN(C3CCN(C)CC3)CC2)cc1`, the Potency was inconclusive: 31.6 µM [inhibitor, partial curve, poor fit].
In the case of `COc1ccc(CCNCc2ccc(Cl)cc2)cc1`, the Potency was inconclusive: 31.6 µM [inhibitor, partial curve, poor fit].
With `CCCCS(=O)(=O)N1C[C@@H](c2ccc3c(c2)OCO3)[C@@H]2[C@H]1C1CCN2CC1` the Potency was inconclusive: 5.62 µM [inhibitor, partial curve, poor fit].
`C=C[C@H]1CN2CC[C@H]1C[C@@H]2CNCc1ccc(-c2ccccc2)cc1` was tested, and the Potency was “inactive”.
With `Cc1nc(-c2ccccc2Br)cc([C@H]2CN3CC[C@H]2C[C@@H]3CNC(=O)Nc2ccccc2)n1` the Potency was inconclusive: 14.1 µM [inhibitor, partial curve].
`CN(C)c1ccc(C(=O)NC[C@H]2C[C@@H]3CCN2C[C@@H]3CN2CCc3ccccc3C2)cc1` was tested, and the Potency was “inactive”.
With `COc1ccc2c(c1)c(C(=O)OC(C)C(=O)NC(C)(C)C)c(C)n2C1CC1` (configuration not stated) the Potency was “inactive”.
For `O=C(O)C1=NOC2CN(Cc3cncs3)CC12` (configuration not stated), the Potency was inconclusive: 44.7 µM [inhibitor, partial curve].
In the case of `C#C[C@H]1CN2CC[C@H]1C[C@@H]2COC(=O)Nc1cc(OC)cc(OC)c1`, the Potency was inconclusive: 35.5 µM [inhibitor, partial curve, poor fit].
With `Cc1nc(-c2ccco2)cc([C@H]2CN3CC[C@H]2C[C@@H]3CNC(=O)c2cccs2)n1` the Potency was inconclusive: 31.6 µM [inhibitor, single point].
For `COc1ccc(C(=O)NC[C@H]2C[C@@H]3CCN2C[C@@H]3c2cc(C3CCCCC3)nn2C)cc1`, the Potency was “inactive”.
`Cn1cccc1CN1CCCC2(CC(c3cccnc3)=NO2)C1` (configuration not stated) was tested, and the Potency was inconclusive: 56.2 µM [inhibitor, partial curve].
In the case of `CCCS(=O)(=O)N1C[C@@H]2C[C@H](C1)c1ccc(-c3ccccc3C)c(=O)n1C2`, the Potency was active: 39.8 µM.
For `O=c1cccc2n1C[C@H]1C[C@@H]2CN(C[C@H]2CN3CC[C@H]2C[C@@H]3CNS(=O)(=O)c2ccccc2)C1`, the Potency was “inactive”.
In the case of `N#C/C(=C\c1ccc(Cl)cc1)C(=O)Nc1ccc(Cl)cc1C(=O)c1ccccc1`, the Potency was inconclusive: 14.1 µM [inhibitor, partial curve, poor fit].
With `O=C(Nc1ccc2n(c1=O)C[C@H]1C[C@@H]2CN(C2CCOCC2)C1)c1ccccc1` the Potency was inconclusive: 35.5 µM [inhibitor, partial curve, poor fit].
`Cc1nc(-c2cccs2)cc([C@H]2CN3CC[C@H]2C[C@@H]3CNC(=O)C2CC2)n1` was tested, and the Potency was inconclusive: 17.8 µM [inhibitor, partial curve, poor fit].
In the case of `COc1ccc(-c2cc3c(cn2)CN(C)CCN3)cn1`, the Potency was inconclusive: 31.6 µM [inhibitor, partial curve, poor fit].
`O[C@H]1COCCN(C2CCOCC2)C1` was tested, and the Potency was inconclusive: 17.8 µM [inhibitor, partial curve].
`O=C1NC2(CCCN(Cc3ccncc3)C2)COc2ccccc21` (configuration not stated) was tested, and the Potency was inconclusive: 31.6 µM [inhibitor, single point].
With `c1cnc2nc(C3CCNCC3)[nH]c2c1` the Potency was inconclusive: 79.4 µM [inhibitor, partial curve, poor fit] and inconclusive: 31.6 µM [inhibitor, single point].
With `Cc1ccc(-n2c(/C=C/c3ccc(Br)s3)nc3ccccc3c2=O)cc1C` the Potency was “inactive”.
